Source: PMC4336329 (PLoS ONE, 2015)
Hit rate of the full screen: of about 310,000 compounds, about 2,200 (0.71%) showed an effect of 50% or more. Effects have a minus sign here. Some of the results follow.

Each compound was assayed against human ether-à-go-go-related gene (hERG) potassium channel (human, UniProt Q12809) (assay: primary screen, population patch clamp on CHO cells stably expressing hERG).
Chain of human ether-à-go-go-related gene (hERG) potassium channel (Q12809 whole entry, looked up): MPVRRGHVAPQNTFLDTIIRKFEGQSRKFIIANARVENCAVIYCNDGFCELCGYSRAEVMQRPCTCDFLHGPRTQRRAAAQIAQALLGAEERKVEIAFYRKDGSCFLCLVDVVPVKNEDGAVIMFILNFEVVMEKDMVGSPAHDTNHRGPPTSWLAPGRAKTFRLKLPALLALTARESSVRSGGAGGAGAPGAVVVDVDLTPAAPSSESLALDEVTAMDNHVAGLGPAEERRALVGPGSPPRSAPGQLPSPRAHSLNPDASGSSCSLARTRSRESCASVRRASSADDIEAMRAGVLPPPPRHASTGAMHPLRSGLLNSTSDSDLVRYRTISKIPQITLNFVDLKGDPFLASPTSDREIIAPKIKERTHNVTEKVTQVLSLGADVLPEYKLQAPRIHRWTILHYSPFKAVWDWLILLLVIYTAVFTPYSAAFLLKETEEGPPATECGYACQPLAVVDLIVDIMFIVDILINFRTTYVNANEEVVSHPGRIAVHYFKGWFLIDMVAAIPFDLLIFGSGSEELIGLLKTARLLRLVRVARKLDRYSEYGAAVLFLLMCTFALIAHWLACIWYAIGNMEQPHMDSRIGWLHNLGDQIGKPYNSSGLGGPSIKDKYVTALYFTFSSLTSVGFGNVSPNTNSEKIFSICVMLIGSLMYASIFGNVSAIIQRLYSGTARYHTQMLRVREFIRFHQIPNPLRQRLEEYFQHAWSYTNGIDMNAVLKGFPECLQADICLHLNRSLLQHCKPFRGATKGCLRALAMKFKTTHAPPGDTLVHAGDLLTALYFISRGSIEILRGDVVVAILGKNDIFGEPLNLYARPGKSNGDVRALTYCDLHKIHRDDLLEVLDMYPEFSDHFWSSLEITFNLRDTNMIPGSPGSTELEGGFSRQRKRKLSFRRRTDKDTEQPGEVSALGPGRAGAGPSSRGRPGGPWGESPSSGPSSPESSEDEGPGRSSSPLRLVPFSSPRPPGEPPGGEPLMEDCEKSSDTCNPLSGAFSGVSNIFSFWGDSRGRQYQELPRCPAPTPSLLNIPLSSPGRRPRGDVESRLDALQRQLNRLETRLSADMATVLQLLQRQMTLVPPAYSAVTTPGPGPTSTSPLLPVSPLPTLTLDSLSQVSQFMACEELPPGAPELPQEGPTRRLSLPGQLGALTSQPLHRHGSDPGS

| Structure (SMILES) | hERG current change (%, negative = inhibition) at 1uM [%] |
| --- | --- |
| O=C(N/N=C/c1ccc(-c2cccc(C(F)(F)F)c2)o1)c1ccccc1Br | 6.99 |
| COc1cc(-c2cc3nc4ccccc4n3c(N)c2C#N)cc(OC)c1OC | -1.48 |
| O=S(=O)(c1ccc(F)c(F)c1F)N1CCN(C(=S)NCc2ccccc2)CC1 | 10.3 |
| Cc1cc(C)cc(-n2c(=O)c3sccc3n(CC(=O)NCc3ccco3)c2=O)c1 | -10.7 |
| O=C(c1ccco1)N1CCN(Cc2cc(=O)c(OCc3ccc([N+](=O)[O-])cc3)co2)CC1 | -29.4 |
| N#C/C(=C\c1ccc(-c2cccc([N+](=O)[O-])c2)o1)C(=O)N1CCOCC1 | 8.18 |
| O=C(c1ccco1)N1CCN(Cc2nnc(-c3ccccc3)o2)CC1 | -6.25 |
| COc1cc(OC)cc(C(=O)NC2CCN(C(=O)N3c4ccccc4Sc4ccccc43)CC2)c1 | 12.9 |
| CC1(C)CC(C(CC(=O)Nc2nccs2)c2ccccc2)CCO1 (centres unmarked) | 13.4 |
| COc1ccccc1C(=O)Nc1ccc2c(c1)nc(CCNC(=O)c1ccccc1)n2C | 11.4 |
| Cc1cc(=O)oc2c1ccc1ccccc12 | 13.6 |
| Cc1cc(NC(=O)CSc2nnc(-c3ccncc3)n2-c2ccccc2)no1 | 8.23 |
| O=C(CSc1nccn1-c1cccc(Cl)c1)NC1CCCC1 | 5.11 |
| COC(=O)C(Cc1ccccc1)NC(=S)NC(=O)c1ccccc1 (centres unmarked) | 13.5 |
| CC(=O)Nc1ccc(N=NN2CCOCC2)cc1 | 11.1 |
| Cc1ccc(-c2ccc(C(=O)O)[nH]2)cc1 | -14.4 |
| CCCC(=O)Nc1nn(C)c2nc3cc(C)ccc3cc12 | 5.13 |
| Cc1c(N=C2NC(=O)/C(=C/c3ccc(O)cc3)S2)c(=O)n(-c2ccccc2)n1C | 7.25 |
| CC1(C)NC(=O)N(CC(O)COc2ccccc2C(=O)N2CCCCC2)C1=O (centres unmarked) | 6.14 |
| COCCNC(=O)C1CCN(S(=O)(=O)c2ccc3c(c2)OCCO3)CC1 | 9.69 |
| CC(=O)/C(=C(/O)c1ccccc1)c1nc2ccccc2[nH]1 | 12.4 |
| COc1ccccc1-n1c(SCC(N)=O)nnc1-c1ccccc1 | 1.19 |
| COc1ccc(CC(=O)Nc2ccc(/C(C)=N/NC(=O)c3ccc(OC)cc3OC)cc2)cc1 | 17.9 |

| Structure (SMILES) | hERG current change (%, negative = inhibition) at 1uM [%] |
| --- | --- |
| COc1ccc(C(=O)Cn2c(C)nc([N+](=O)[O-])c2Br)cc1 | 3.64 |
| Nc1nc(SCC(=O)Nc2ccc([N+](=O)[O-])cc2)[nH]c(=O)c1NC(=O)c1ccc(Br)o1 | 11.3 |
| C=CCNC(=S)Nc1ccc(C(N)=O)cc1 | 15 |
| COc1cccc(C(=O)Nc2cccc(C(=O)NCC(C)C)c2)c1 | -10.4 |
| CCOc1ccc(CN(C)CC(=O)Nc2ccc([N+](=O)[O-])cc2Cl)cc1 | 10.6 |
| COc1cccc(OC)c1OC(=O)c1cnccn1 | 16.1 |
| O=C(Nc1ccc(-n2cccn2)cc1)C1CCCCN1Cc1cccc2cccnc12 (centres unmarked) | -1.72 |
| Cc1csc2nc(NC(=O)c3ccccc3)sc(=O)c12 | 8.93 |
| O=c1[nH]c(=O)c2cn[nH]c2[nH]1 | 6.29 |
| O=C(NCCCn1ccnc1)/C(=C/c1ccco1)NC(=O)c1ccco1 | -10.2 |
| COc1ccc(C(=O)Nc2cc(Cl)cc(Cl)c2)c(OC)n1 | 8.3 |
| COc1ccc(NC(=O)CSCC(=O)NC2(C)CCS(=O)(=O)C2)cc1 (centres unmarked) | 10.3 |
| COc1ccc(C(=O)OCC(=O)c2ccccc2)cc1S(=O)(=O)N1CCOCC1 | 1.33 |
| Cn1nnnc1SCC(=O)N1CCN(C(=O)c2ccco2)CC1 | -6.91 |
| NC(=O)c1cc(S(=O)(=O)N2CCOCC2)cs1 | 18.9 |
| O=C(Nc1nccs1)c1cc(N2CCOCC2)nc2ccccc12 | 11.4 |
| CCc1ccc(OCC(=O)O/N=C(\N)c2cccnc2)cc1 | 0.0916 |
| C=CCSc1nc2c(c(=O)[nH]1)C(c1ccccc1)C(C#N)=C(N)O2 (centres unmarked) | 5.71 |
| OC1CCN(Cc2ccc(OCc3ccccc3)cc2)CC1 | 13.1 |
| O=C(CSc1c(Cl)cccc1Cl)NC1CCCc2ccccc21 (centres unmarked) | 5.72 |
| c1ccc2nc(N3CCCC3)c(N3CCCC3)nc2c1 | 12.1 |
| CC(=O)NCCc1ccc(S(=O)(=O)NCc2ccc3c(c2)OCO3)cc1 | 11.9 |
| CCc1nnc(NC(=O)CSc2nnc(C)n2-c2ccc(C)cc2)s1 | 0.271 |

| Structure (SMILES) | hERG current change (%, negative = inhibition) at 1uM [%] |
| --- | --- |
| COc1ccc(C(=O)NNC(=O)CCn2nnc(-c3ccc(Cl)cc3)n2)cc1OC | 24.5 |
| NS(=O)(=O)c1cccc(NC(=O)CSc2nc3ccccc3n2-c2ccccc2)c1 | 16.4 |
| O=C(CSc1ccc(F)cc1)Nc1ccc(Br)cc1 | 13.9 |
| Cn1ccnc1C(O)c1cccc(OCc2ccccc2)c1 (centres unmarked) | 9.51 |
| CC1CCCC(C)N1C(=O)COC(=O)c1ccc(F)c(S(=O)(=O)N2CCOCC2)c1 (centres unmarked) | 9.85 |
| CC(C)(O)[C@H]1O[C@H]2CC[C@@]3(C)[C@@](O)(CC[C@H]4Cc5c([nH]c6ccccc56)[C@@]43C)C2=CC1=O | 14.4 |
| CCCn1c(C)cc(C(=O)CN2C(=O)c3cccc(N)c3C2=O)c1C | -0.486 |
| C[C@@H](NC(=O)[C@@H]1Cc2ccccc2CN1C(=O)OC(C)(C)C)C(=O)NC1CCCC1 | 15.5 |
| COc1ccccc1NS(=O)(=O)c1cccc(NC(=O)c2nc3nc(C)cc(C)n3n2)c1 | -8.12 |
| O=C1S/C(=C\C=C\c2ccco2)C(=O)N1c1ccc(O)cc1 | 8.58 |
| COc1ccc2c(c1)O[C@@]1(CCCC[C@@H]1C)CC2=O | 11.9 |
| O=C(c1nnc(-c2ccc(Cl)cc2)o1)C1CCCC1 | 5.51 |
| CCC(C)(C)C1CCc2nc3ccccc3c(C(=O)OC(C)C(=O)Nc3c(C)n(C)n(-c4ccccc4)c3=O)c2C1 (centres unmarked) | 11.4 |
| CCn1c(=O)c2cc(C(=O)Nc3ccc(OC)cc3OC)sc2c2ccccc21 | 12.4 |
| CN1CCN(C(=O)CCc2nc3ccccc3c(=O)[nH]2)CC1 | 15.6 |
| COc1ccc(/[N+]([O-])=C/c2ccoc2)cc1 | 14 |
| CCC(=O)NC(=S)NNC(=O)c1ccccc1[N+](=O)[O-] | 8.4 |
| CC(C)c1ccc(NC(=O)C(c2ccccc2)N2CCOCC2)cc1 (centres unmarked) | 1.05 |
| Cc1ccc(NC(=O)CSc2nnc(CNC(=O)c3c(F)cccc3Cl)o2)cc1 | 11.5 |
| N#Cc1ccccc1NC(=O)CC1CCCCC1 | 6.16 |
| O=C(c1ccc2c(c1)OCO2)N1CCC2(CC1)Oc1ccc(Cl)cc1C(=O)C21CC(c2ccccc2)=NO1 (centres unmarked) | 3.4 |
| CCOCCCn1c(=S)[nH]c2cc(C(=O)NCC(OC)OC)ccc2c1=O | 7.34 |
| CC(=O)OCCCN1C(=O)c2ccc(Br)cc2C1=O | 8.06 |

| Structure (SMILES) | hERG current change (%, negative = inhibition) at 1uM [%] |
| --- | --- |
| NS(=O)(=O)c1ccc2nc(NC(=O)c3ccc4ncsc4c3)sc2c1 | 9.12 |
| COC(=O)C1=C(N)Oc2c(c(=O)oc3ccccc23)[C@]12C(=O)N(C)c1ccccc12 | -0.466 |
| CCc1ccc(OCc2n[nH]c(=S)n2Cc2ccccc2)cc1 | 11.2 |
| O=CNc1ccccc1Oc1ccccc1 | 9.19 |
| CCOC(=O)c1ccc(NC(=O)CNC(=O)C2CCCCC2)cc1 | -3 |
| COc1ccccc1N1CCN(C(=O)CSc2nc3ccccc3nc2N2CCCCC2)CC1 | 16.5 |
| N#Cc1ccc(C(=O)NNC(=O)c2ccncc2)cc1 | 12.6 |
| COc1cccc(NC(=O)CCN2CCOCC2)c1.Cl | 15.1 |
| COc1ccc(S(=O)(=O)N2CCCCC2)cc1NC(=O)c1cc(C)on1 | 16.4 |
| COc1ccc(CC(=O)Nc2ccc(S(=O)(=O)N3CCCCC3)cc2)cc1OC | 2.89 |
| COc1cc(/C=N/NC(=O)c2cc[n+]([O-])cc2)cc(OC)c1OC | 9.39 |
| CCOC(=O)c1c(S(=O)(=O)N(C)C2CCCCC2)c(C)n(C)c1C | 6.36 |
| COc1ccc(C(CNC(=O)COc2cccc(C(F)(F)F)c2)N2CCCC2)cc1 (centres unmarked) | -2.77 |
| O=C(N/N=C/C=C/c1ccccc1)c1ccccn1 | 7.02 |
| O=C(NCCN1CCOCC1)c1ccc(Cl)c([N+](=O)[O-])c1 | 18.8 |
| Cc1ccc(NC(=O)CS(=O)CC(=O)N(CC(=O)NC2CCCC2)c2cccc(C)c2C)cc1 (centres unmarked) | 2.3 |
| COC(=O)c1cccc(NS(=O)(=O)c2ccc(OC)cc2)c1C | 4.43 |
| O=C(CSc1n[nH]c(-c2ccccc2)n1)Nc1ncccn1 | 5.09 |
| O=C(N/N=C/c1ccc(O)cc1O)c1ccc(NC(=O)C2CCCCC2)cc1 | 13.1 |
| COc1ccc(OC)c(Cc2nnc(CCC(=O)NCc3ccsc3)o2)c1 | -15.1 |
